In PubChem BioAssay AID485360 (National Center for Advancing Translational Sciences (NCATS), 2010):
The whole screen tested about 230,000 compounds, of which about 1,500 (0.65%) were called active. This list was built around the results that the source calls inconclusive (neither active nor inactive); the mix of calls is not that of the screen. Calls come from the whole dose curve; as a rule, active = well fitted inhibition curve with a large enough effect; inconclusive = small, poorly fitted or top-dose-only effect; inactive = no such curve, though single readings can be large or run the other way. A potency beside an inconclusive call is a rough fit, not a confirmed value.

target: Lethal(3)malignant brain tumor-like protein 1 (Homo sapiens) (UniProt Q9Y468); test: qHTS Assay for the Inhibitors of L3MBTL1; details: AlphaScreen L3MBTL1–H3K9me1 peptide binding; activity, negative = inhibition: at 57.1 µM (top of the series); note: nearly all actives have a fitted effect of over 60% in size
Sequence of UniProt Q9Y468 (Q9Y468 whole entry, looked up): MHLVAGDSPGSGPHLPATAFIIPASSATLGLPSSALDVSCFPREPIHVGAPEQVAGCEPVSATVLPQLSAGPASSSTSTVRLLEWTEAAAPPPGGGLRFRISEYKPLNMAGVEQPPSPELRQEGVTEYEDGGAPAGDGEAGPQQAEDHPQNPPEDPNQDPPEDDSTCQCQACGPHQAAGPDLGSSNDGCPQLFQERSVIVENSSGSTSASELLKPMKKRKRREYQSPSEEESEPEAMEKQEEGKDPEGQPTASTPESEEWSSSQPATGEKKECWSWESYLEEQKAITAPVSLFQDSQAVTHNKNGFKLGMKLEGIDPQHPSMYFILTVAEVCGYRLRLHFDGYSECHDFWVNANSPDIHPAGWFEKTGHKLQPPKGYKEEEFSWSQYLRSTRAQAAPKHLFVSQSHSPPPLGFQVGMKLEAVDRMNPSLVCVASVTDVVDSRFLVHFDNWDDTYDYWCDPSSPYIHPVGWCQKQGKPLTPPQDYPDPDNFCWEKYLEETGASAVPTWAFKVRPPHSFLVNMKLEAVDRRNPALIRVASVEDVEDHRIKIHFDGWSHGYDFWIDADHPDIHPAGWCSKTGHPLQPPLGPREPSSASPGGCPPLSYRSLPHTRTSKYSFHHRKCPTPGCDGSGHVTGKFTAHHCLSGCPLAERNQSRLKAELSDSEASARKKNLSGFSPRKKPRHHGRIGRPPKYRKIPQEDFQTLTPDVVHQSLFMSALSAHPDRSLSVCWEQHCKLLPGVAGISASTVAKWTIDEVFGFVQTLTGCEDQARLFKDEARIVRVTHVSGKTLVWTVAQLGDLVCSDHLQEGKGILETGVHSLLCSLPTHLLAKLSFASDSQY
Summary of the method: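 L3MBTL1 50 nM + b-AHA-H3(1-15)K9me1 75 nM, 30 min RT; compound added, 30 min RT; streptavidin donor/Ni-chelate acceptor beads 10 ug/mL each final, 30 min RT dark; AlphaScreen read.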
% is set by controls: 0 for no effect and ±100 for the full control effect; potency is the fitted concentration of half-maximal effect; tags give direction and shape of the fitted curve.

Structure (SMILES)	activity, negative = inhibition	Potency
O=C(O)CCn1cc(/C=C\C(=O)c2ccc(Cl)cc2)c(-c2cccc(Br)c2)n1	inactive: 1.58%	–
Cc1coc2c(O)cc3c(c12)OC1(N2CCCCC2)C(=O)NCCCC31 (stereo not given)	–	inconclusive: 39.8 µM [inhibitor, single point]
O=C(N/N=C/c1cc([N+](=O)[O-])ccc1O)/C(=C\c1cccs1)NC(=O)c1ccccc1	–	inconclusive: 22.4 µM [inhibitor, single point]
O=C(N/N=C1\CCSc2ccc(F)cc21)c1cccnc1	–	inconclusive: 0.1 µM [inhibitor, full curve, poor fit]
Cc1cc2c(c(=O)o1)C1(C(=O)N(CC(=O)O)c3ccccc31)C(C#N)=C(N)O2 (stereo not given)	–	inconclusive: 39.8 µM [inhibitor, single point]
CCn1c(C)nc2cc(C(=O)NNC(=S)NC(=O)c3ccccc3)ccc21	inactive: 56%	–
Cc1cccc(N/N=C/c2ccccc2O)c1	inactive: 11.5%	–
Cc1cccc(C(=O)OCC(=O)c2ccc(CC(=O)N3CCOCC3)s2)c1C	–	inconclusive: 28.2 µM [inhibitor, single point]
CCOC(=O)c1cnc(SCC(=O)Nc2cc(C(F)(F)F)ccc2N2CCOCC2)nc1N	–	inconclusive: 2.24 µM [inhibitor, single point]
COc1ccc(Cl)cc1-n1c(N)c(C(N)=O)sc1=S	inactive: 0.165%	–
N#Cc1cc2c([nH]c1=S)CCCC2	inactive: 4.22%	–
O=C(c1csc(Nc2ccccc2Cl)n1)N1CCCC1	–	inconclusive: 6.31 µM [inhibitor, single point]
COc1ccc(S(=O)(=O)N2CCSC2C)cc1C (stereo not given)	–	inconclusive: 4.47 µM [inhibitor, single point]
Cc1cc(C)nc(N/N=C/c2ccccc2OCc2ccc(Br)cc2)n1	inactive: -2.95%	–
Cc1cc(NC(=O)CSc2ccc3nnc(-c4ccccn4)n3n2)no1	–	inconclusive: 31.6 µM [inhibitor, single point]
CCOc1ccc(NC(=O)COC(=O)Cn2cnc3ccccc32)cc1	–	inconclusive: 1.41 µM [inhibitor, single point]
COc1ccc(-c2nn(-c3ccccc3)cc2/C=C/C(=O)O)cc1[N+](=O)[O-]	–	inconclusive: 6.31 µM [inhibitor, single point]
COc1ccc(-c2ccc(NCCN3CCOCC3)nn2)cc1OC	inactive: 9.18%	–
N#CNc1nc(O)cc(=O)[nH]1	–	inconclusive: 39.8 µM [inhibitor, single point]
CN(CC(=O)Nc1ccccc1Cl)C(=O)COC(=O)c1ccc([N+](=O)[O-])s1	–	inconclusive: 39.8 µM [inhibitor, single point]
CC(C)(C)C1CCc2sc(C(=O)NNC(=O)CCl)cc2C1 (stereo not given)	–	inconclusive: 8.91 µM [inhibitor, partial curve]
O=C(Nc1cc(Cl)ccc1N1CCOCC1)c1cnccn1	–	inconclusive: 7.08 µM [inhibitor, partial curve]
O=c1c2cc(N3CCOCC3)ccc2[nH]c(=S)n1Cc1ccco1	–	inconclusive: 5.01 µM [inhibitor, single point]
S=c1[nH]nc(-c2cc(-c3ccco3)[nH]n2)n1-c1cccc2ccccc12	–	inconclusive: 31.6 µM [inhibitor, single point]

Structure (SMILES)	activity, negative = inhibition	Potency
CCOC(=O)c1c(-c2ccco2)csc1NC(=O)COC(=O)c1cnc(C)cn1	–	active: 31.6 µM
Cc1ccc(C(=O)c2cc3c(cc2N)OCCO3)cc1	–	inconclusive: 15.8 µM [inhibitor, partial curve]
[O-][n+]1c2cc(C(F)(F)F)ccc2c2n1CCN=C2c1ccc(Cl)cc1	–	inconclusive: 6.31 µM [inhibitor, single point]
Cc1cc(C)c2nc(N3CCN(C(=O)c4ccco4)CC3)sc2c1	inactive: -2.63%	–
CNC(=O)NC(=O)COC(=O)c1ccc(-n2c(C)ccc2C)cc1	–	inconclusive: 39.8 µM [inhibitor, single point]
CC(C)(C)OC(=O)N1CCC(c2cc(=O)n3[nH]cc(C(=O)Nc4ccc(F)c(Cl)c4)c3n2)CC1	inactive: -0.339%	–
C#CCOCCOCCOCCNc1nc(N2CCN(C(=O)C([C@@H](C)CC)n3cc(C(N)Cc4ccc(O)cc4)nn3)CC2)nc(N2CCN(C(=O)[C@H](CCC(=O)O)n3cc(C(N)Cc4ccc(O)cc4)nn3)CC2)n1 (stereo not given in full)	inactive: -26.4%	–
COc1ccc(N/C(C)=C/C(=O)c2ccccc2)cc1	inactive: -3.54%	–
Cc1ccc(C(=O)Nc2ccc(C(=O)N/N=C/c3ccncc3)cc2)cc1	–	inconclusive: 1 µM [inhibitor, single point]
O=C(O)c1cc(C(=O)O)cc(-c2ccc(/C=c3/sc4nc5ccccc5n4c3=O)o2)c1	–	active: 1.78 µM
Cc1cc(C=C2C(=O)c3ccccc3C2=O)c(C)n1-c1ccc(C(=O)O)cc1	–	inconclusive: 39.8 µM [inhibitor, single point]
COc1ccc(CNC(=O)c2nnn(Cc3ccc(OC)cc3)c2N)cc1	–	inconclusive: 6.31 µM [inhibitor, single point]
C[C@]12c3[nH]c4ccc(Cl)cc4c3CCN1C(=O)[C@@H](CC(=O)NCc1ccco1)C[C@@H]2C(=O)N1CCOCC1	–	inconclusive: 6.31 µM [inhibitor, single point]
O=C(Nc1cccc2ncccc12)c1cccnc1	–	inconclusive: 6.31 µM [inhibitor, single point]
C/C(=N\NC(=S)NCc1ccccc1)c1cccc(Br)c1	–	inconclusive: 0.1 µM [inhibitor, full curve, poor fit]
Cc1c2cc(O)c(=O)cc-2oc2cc(O)c(O)cc12	–	active: 2.82 µM
CC(Cc1c[nH]c2ccccc12)C(=O)O (stereo not given)	–	active: 2 µM
CC[C@@]1(C(=O)OC)N[C@H](CN(C)C(=O)c2ccc(F)cc2)[C@@H]2C(=O)N(C)C(=O)[C@@H]21	–	inconclusive: 35.5 µM [inhibitor, single point]
COc1ccc(NC(=S)NNc2ccc([N+](=O)[O-])cc2S(=O)(=O)Nc2ccc(C)cc2C)cc1	–	inconclusive: 28.2 µM [inhibitor, single point]
OCCNc1ncnc2c1sc1nc(N3CCOCC3)c3c(c12)CCC3	–	inconclusive: 0.891 µM [inhibitor, full curve, poor fit]
Cc1ccc(S(=O)(=O)N2CCN(C(=O)c3ccccc3OCc3c(C)noc3C)CC2)cc1C	–	inconclusive: 4.47 µM [inhibitor, single point]
Cc1cc(NC(=O)CN2C(=O)S/C(=C\c3ccccc3)C2=O)no1	–	inconclusive: 6.31 µM [inhibitor, single point]
Cc1ccc(Nc2nc(N)nc(COC(=O)C3=COCCO3)n2)cc1	inactive: -5.61%	–
CCn1c(SC(=O)NC2CCCCC2)nnc1-c1cccs1	inactive: -0.657%	–

Structure (SMILES)	activity, negative = inhibition	Potency
CCOC(=O)c1ccc(NC(=S)N(CCCN2CCN(CC)CC2)Cc2cccs2)cc1	–	inconclusive: 3.16 µM [inhibitor, full curve]
O=c1[nH][nH]c(=O)c2c(NS(=O)(=O)c3ccccc3)cccc12	inactive: 4.15%	–
CC(C)NC(=O)CCCc1c[nH]c2ccccc12	–	inconclusive: 0.141 µM [inhibitor, full curve, poor fit]
COc1ccc(N2CCN(C(=O)CSc3nnc(C)c(=O)[nH]3)CC2)cc1	–	inconclusive: 28.2 µM [inhibitor, single point]
O=C(NNc1ccccc1[N+](=O)[O-])NC1CCCCC1	inactive: 12.8%	–
CC(NC(=O)Nc1ccc(O)cc1)(C(F)(F)F)C(F)(F)F	–	inconclusive: 31.6 µM [inhibitor, single point]
Cc1c(C(=O)Nc2nc3ccccc3[nH]2)oc2ccc(Br)cc12	inactive: 0.462%	–
Cc1cc(OCC(F)(F)C(F)(F)C(F)(F)C(F)(F)C(F)(F)C(F)F)nc(N)n1	inactive: 5.86%	–
CCSC1=NN2CCS(=O)(=O)N=C2S1	–	inconclusive: 0.355 µM [inhibitor, full curve]
O=C(COC(=O)c1cc(-c2ccccc2Cl)nc2ccccc12)Nc1ncc(C(F)(F)F)cc1Cl	–	inconclusive: 35.5 µM [inhibitor, partial curve]
O=C(CSc1nnc(Nc2ccccc2F)s1)NCc1ccco1	–	inconclusive: 28.2 µM [inhibitor, single point]
O=C(O)C1Nc2c(Cl)cc(Cl)cc2C2C=CCC12 (stereo not given)	–	active: 3.55 µM
O=C(Nc1cccc2c1CCCC2)c1ccncc1	–	inconclusive: 11.2 µM [inhibitor, partial curve]
O=C(OCC(=O)N1N=C(c2ccc(Cl)cc2)CC1c1ccco1)c1cncc(Br)c1 (stereo not given)	–	inconclusive: 20 µM [inhibitor, single point]
CCOc1ccc(C(=O)NCC(=O)Nc2ccc(N3CCOCC3)cc2)cc1OCC	–	inconclusive: 10 µM [inhibitor, partial curve, poor fit]
CN(C(=O)/C=C/c1ccc([N+](=O)[O-])s1)c1ccccc1	inactive: -24.7%	–
O=C1S/C(=C\c2ccccn2)C(=O)N1Cc1ccccc1F	inactive: 2.42%	–
Cc1ccc(C)c(NC(=O)COC(=O)c2cc(=O)c3ccccc3o2)c1	–	inconclusive: 0.794 µM [inhibitor, single point]
CCCOc1ccccc1/C=C(\C#N)C(=O)Nc1cccnc1	inactive: 10.4%	–
Cc1ccc(C(=O)N/C(=C/c2ccco2)C(=O)NCCCn2ccnc2)cc1	–	inconclusive: 20 µM [inhibitor, partial curve]
CCC(C)OC(=O)c1cc(C)nc2c(Br)cc(Br)cc12 (stereo not given)	–	inconclusive: 8.91 µM [inhibitor, single point]
COc1cccc(CNCc2ccccn2)c1OC	–	inconclusive: 22.4 µM [inhibitor, partial curve]
